According to PubChem BioAssay (NCI):
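48-hour exposure; five concentrations; linearly interpolated endpoints. Here, GI50 denotes the concentration required for 50% inhibition of growth. The concentration for full growth arrest is given as TGI.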

Test system: NCI-H322M lung
Assay: DTP human tumour cell line panel, 48 h

`O=P(CCOc1ccccc1OCCP(=O)(c1ccccc1)c1ccc2c(c1)OCCOCCOCCOCCO2)(c1ccccc1)c1ccc2c(c1)OCCOCCOCCOCCO2` (stereo unspecified) and `CC(C)(Oc1ccc2c(=O)cc(-c3ccccc3)oc2c1)C(=O)N1CCN(c2ccccc2)CC1` cannot be ordered by TGI: > 100 µM for the first, > 10 µM for the second.

`CCCCCCCCCC/C=C/C=O` and `CS(=N)(=O)CCC(N)P(=O)(O)O` (stereo unspecified) cannot be ordered by TGI: > 100 µM for the first, > 100 µM for the second.

`COc1cc2cc3c4cc(OC)c(OC)cc4cc[n+]3c(C)c2cc1OC` and `Cc1cc2c(cc1C)[n+](=O)c(C(=O)CC(=O)C(=O)Nc1ccccc1C(C)C)c(C)n2[O-]` cannot be ordered by TGI: > 100 µM for the first, > 100 µM for the second.

Going from `O=C(/C=C/c1nnc2n(Cc3ccccc3)c(=O)c3c4c(sc3n12)CCCC4)c1ccccc1` to `CC(=O)Oc1c(Br)ccc2cc(C(Br)Br)c(C(=O)c3ccccc3)nc12`, the TGI falls from > 100 µM to 37.2 µM.

`COC1=CC(=O)OC(/C=C(C)/C=C/C2=C(C)CCCC2(C)C)C1` (stereo unspecified) and `CC(C)COP(C)(=O)C(N)(C(F)(F)F)C(F)(F)F` (stereo unspecified) cannot be ordered by TGI: > 100 µM for the first, > 100 µM for the second.

`O=C(/C=C/c1nnc2n(Cc3ccccc3)c(=O)c3c4c(sc3n12)CCCC4)c1ccccc1` was tested, and the GI50 was > 100 µM.
